Positions count from the first letter of the chain named. This is one part of the list.
B1: UAUCUUC (DNA:RNA)
RNA: GGGAGACCGGAAUUCAGAUUGUCCUAUCUUCUUAAAUCCCGUCGUAGCCACCA
DNA 1: CAATCTGAATTCCGGTCTCCC
DNA 2: TGGTGGCTACGACGGGATT
B2: AUUGGUA (DNA:RNA)
RNA: B1 RNA with U25A, A26U, C28G, U29G, C31A
DNA 1: CAATCTGAATTCCGGTCTCCC
DNA 2: TGGTGGCTACGACGGGATT
B3: ACAAUGU (DNA:RNA)
RNA: B1 RNA with U25A, A26C, U27A, C28A, U30G, C31U
DNA 1: CAATCTGAATTCCGGTCTCCC
DNA 2: TGGTGGCTACGACGGGATT
B4: CCAUGCG (DNA:RNA)
RNA: GGGAGACCGGAAUUCAGAUUGUCCCCAUGCGUUAAAUCCCGUCGUAGCCACCA
DNA 1: CAATCTGAATTCCGGTCTCCC
DNA 2: TGGTGGCTACGACGGGATT
B5: GCAUUGU (DNA:RNA)
RNA: B4 RNA with C25G, G29U, C30G, G31U
DNA 1: CAATCTGAATTCCGGTCTCCC
DNA 2: TGGTGGCTACGACGGGATT
B6: GUUUCCG (DNA:RNA)
RNA: B4 RNA with C25G, C26U, A27U, G29C
DNA 1: CAATCTGAATTCCGGTCTCCC
DNA 2: TGGTGGCTACGACGGGATT
B7: UAUAGGU (DNA:RNA)
RNA: B1 RNA with C28A, U29G, U30G, C31U
DNA 1: CAATCTGAATTCCGGTCTCCC
DNA 2: TGGTGGCTACGACGGGATT
B8: CGUAUUA (DNA:RNA)
RNA: B1 RNA with U25C, A26G, C28A, C31A
DNA 1: CAATCTGAATTCCGGTCTCCC
DNA 2: TGGTGGCTACGACGGGATT
B9: GUACGUU (DNA:RNA)
RNA: B4 RNA with C25G, C26U, U28C, C30U, G31U
DNA 1: CAATCTGAATTCCGGTCTCCC
DNA 2: TGGTGGCTACGACGGGATT
B10: GUGGAAC (DNA:RNA)
RNA: B1 RNA with U25G, A26U, U27G, C28G, U29A, U30A
DNA 1: CAATCTGAATTCCGGTCTCCC
DNA 2: TGGTGGCTACGACGGGATT
B11: AGUAAGG (DNA:RNA)
RNA: B4 RNA with C25A, C26G, A27U, U28A, G29A, C30G
DNA 1: CAATCTGAATTCCGGTCTCCC
DNA 2: TGGTGGCTACGACGGGATT
B12: AGUACUC (DNA:RNA)
RNA: B1 RNA with U25A, A26G, C28A, U29C
DNA 1: CAATCTGAATTCCGGTCTCCC
DNA 2: TGGTGGCTACGACGGGATT
B13: CACCCCG (DNA:RNA)
RNA: B4 RNA with C26A, A27C, U28C, G29C
DNA 1: CAATCTGAATTCCGGTCTCCC
DNA 2: TGGTGGCTACGACGGGATT
B14: CUGCCAA (DNA:RNA)
RNA: B4 RNA with C26U, A27G, U28C, G29C, C30A, G31A
DNA 1: CAATCTGAATTCCGGTCTCCC
DNA 2: TGGTGGCTACGACGGGATT
B15: CCAGGAA (DNA:RNA)
RNA: B4 RNA with U28G, C30A, G31A
DNA 1: CAATCTGAATTCCGGTCTCCC
DNA 2: TGGTGGCTACGACGGGATT
B16: GACUAGA (DNA:RNA)
RNA: B4 RNA with C25G, C26A, A27C, G29A, C30G, G31A
DNA 1: CAATCTGAATTCCGGTCTCCC
DNA 2: TGGTGGCTACGACGGGATT
B17: AAAACUC (DNA:RNA)
RNA: B1 RNA with U25A, U27A, C28A, U29C
DNA 1: CAATCTGAATTCCGGTCTCCC
DNA 2: TGGTGGCTACGACGGGATT
B18: GGUAGCC (DNA:RNA)
RNA: B4 RNA with C25G, C26G, A27U, U28A, G31C
DNA 1: CAATCTGAATTCCGGTCTCCC
DNA 2: TGGTGGCTACGACGGGATT
B19: CGCUAGC (DNA:RNA)
RNA: B4 RNA with C26G, A27C, G29A, C30G, G31C
DNA 1: CAATCTGAATTCCGGTCTCCC
DNA 2: TGGTGGCTACGACGGGATT
B20: AUACGGC (DNA:RNA)
RNA: B4 RNA with C25A, C26U, U28C, C30G, G31C
DNA 1: CAATCTGAATTCCGGTCTCCC
DNA 2: TGGTGGCTACGACGGGATT

target: T1, RBFOX1 RRM (Homo sapiens, UniProt Q9NWB1 109-208); assay: EMSA; HiTS-Eq, 1 nM pool, 10 min; buffer printed only for the single-RNA assays: 10 mM Tris pH 7.5, 150 mM NaCl, 3.4 mM EDTA, 0.001% NP-40, 30 C; settings: tags: His6 N-terminal (pET28a); label: 5' 32P
T1 sequence: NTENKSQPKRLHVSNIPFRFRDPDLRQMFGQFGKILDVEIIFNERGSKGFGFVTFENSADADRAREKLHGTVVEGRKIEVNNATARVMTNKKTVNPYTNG
Outline: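 Relative association constants, normalised to the cognate motif, were derived by comparing read counts of each RNA species with those of the control reaction. The RNA sequenced was the free fraction, separated by 8% native PAGE after a 10 min equilibration in 50 µL of 1 nM 5′-radiolabelled RNA (7 randomized nucleotides) with increasing concentrations of purified wild-type or mutant RbFox RRM.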

Row | Binder | binding signal
1 | B1 | 0.0111 KA relative to UGCAUGU
2 | B2 | 0.0104 KA relative to UGCAUGU
3 | B3 | 0.00427 KA relative to UGCAUGU
4 | B4 | 0.00877 KA relative to UGCAUGU
5 | B5 | 0.0129 KA relative to UGCAUGU
6 | B6 | 0.0199 KA relative to UGCAUGU
7 | B7 | 0.00931 KA relative to UGCAUGU
8 | B8 | 0.00205 KA relative to UGCAUGU
9 | B9 | 0.00874 KA relative to UGCAUGU
10 | B10 | 0.0156 KA relative to UGCAUGU
11 | B11 | 0.00699 KA relative to UGCAUGU
12 | B12 | 0.0053 KA relative to UGCAUGU
13 | B13 | 0.002 KA relative to UGCAUGU
14 | B14 | 0.0111 KA relative to UGCAUGU
15 | B15 | 0.011 KA relative to UGCAUGU
16 | B16 | 0.0143 KA relative to UGCAUGU
17 | B17 | 0.00166 KA relative to UGCAUGU
18 | B18 | 0.00884 KA relative to UGCAUGU
19 | B19 | 0.0135 KA relative to UGCAUGU
20 | B20 | 0.00749 KA relative to UGCAUGU

Reference: article PMC9911399, “Two distinct binding modes provide the RNA-binding protein RbFox with extraordinary sequence specificity”
